Where a name gives a salt, the structure may show the parent alone. ± gives the standard deviation of the averaged measurements. Whole data set: some 2,600 compounds, median “MBP+ mature oligodendrocyte number relative to DMSO vehicle control” near -0.34, cut for the highest 2% near 13. The list shows a part of the results.
System: jimpy (Plp1 jimpy) mouse iPSC-derived oligodendrocyte progenitor cells
Assay: MBP+ mature oligodendrocyte number relative to DMSO vehicle control (SDs above negative control mean); higher = more surviving jimpy oligodendrocytes (rescue)
Details: 10 µM; 3 days
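Further: 10 µM single dose with 3-day oligodendrocyte differentiation.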

| Structure (SMILES) | MBP+ mature oligodendrocyte number |
| --- | --- |
| COC(=O)Nc1nc2cc([S+]([O-])c3ccccc3)ccc2[nH]1 (stereo not drawn) [Oxfendazole] | -1.46 |
| C[C@@H]1C(=O)NC2=Nc3cccc(Cl)c3CN21 [Quazinone] | -0.925 |
| NNC(=O)CSc1nc2scc(-c3ccccc3)c2c(=O)n1-c1ccccc1 | -0.637 |
| COc1ccccc1OCC(O)COC(N)=O (stereo not drawn) [Methocarbamol] | -0.647 |
| CCc1c(Cl)c(O)c(Cl)c(O)c1C(=O)O[C@H]1[C@H](O)[C@H](OC)[C@H](OC/C2=C\C=C\C[C@H](O)/C(C)=C/[C@H](CC)[C@@H](O[C@@H]3OC(C)(C)[C@@H](OC(=O)C(C)C)[C@H](O)[C@@H]3O)/C(C)=C/C(C)=C/C[C@@H]([C@@H](C)O)OC2=O)O[C@@H]1C [Fidaxomicin] | 0.744 |
| Nc1ccn([C@@H]2CS[C@H](CO)O2)c(=O)n1 [Lamivudine] | 1.06 |
| Cc1cc(N)c2ccccc2[n+]1CCCCCCCCCC[n+]1c(C)cc(N)c2ccccc21 [Dequalinium chloride hydrate] | < -4.47 |
| CCCCN(CC)c1nc(C)nc2c1c(C)cn2-c1c(C)cc(C)cc1C | 2.07 |
| N#CC(C#N)=C(N)/C(C#N)=C/c1cc(O)c(O)c(O)c1 [Tyrphostin 51] | -0.247 |
| CCN(CC)CCCCCCCCOC(=O)c1cc(OC)c(OC)c(OC)c1 [TMB-8 hydrochloride] | 8.25 |
| C=CC(=O)Nc1cccc(Nc2nc(Nc3ccc(OCCOC)cc3)ncc2F)c1 | -6.1 |
| CCC(=O)Nc1cccc(Oc2nc(Nc3ccc(N4CCN(C)CC4)cc3OC)ncc2Cl)c1 | < -6.35 |
| Cn1ccc2cc3c(cc21)CCN3C(=O)Nc1cccnc1 | 0.574 |
| O=C(O)CP(=O)(O)O [Phosphonoacetic acid] | -0.64 |
| O=C(Nc1ccccc1Br)N[C@@H]1CCN(c2ccc(C(F)(F)F)cn2)C1 | 1.22 |
| CN(C)CC(c1ccc(O)cc1)C1(O)CCCCC1 (stereo not drawn) [Desvenlafaxine Succinate] | -3.23 |
| CN(C)CC(c1ccc(O)cc1)C1(O)CCCCC1 (stereo not drawn) [Desvenlafaxine] | -1.45 |
| O=C(NOCC(O)CO)c1cc(Br)c(F)c(F)c1Nc1ccc(I)cc1F (stereo not drawn) | -3.17 |
| O=C(C[S+]([O-])Cc1ccco1)NC/C=C\COc1cc(CN2CCCCC2)ccn1 (stereo not drawn) [Lafutidine] | 3.22 |
| C#CCC(Cc1cnc2nc(N)nc(N)c2n1)c1ccc(C(=O)N[C@@H](CCC(=O)O)C(=O)O)cc1 (stereo partly drawn) [Pralatrexate] | 3.13 |
| COc1c(N2CCNC(C)C2)c(F)cc2c(=O)c(C(=O)O)cn(C3CC3)c12 (stereo not drawn) [Gatifloxacin] | 1.33 |
| O=C(c1ccccc1)c1ccc2n1CCC2C(=O)O (stereo not drawn) [Ketorolac] | -0.737 |
| O=C(c1ccccc1)c1ccc2n1CCC2C(=O)O (stereo not drawn) [Ketorolac tris salt] | 0.108 |
| CCN(CC)CCCC(C)Nc1nc(C)cc(Nc2ccc3nc(C)cc(N)c3c2)n1 (stereo not drawn) | 2.49 |
| CN(C)C/C=C/C(=O)Nc1cc2c(Nc3ccc(F)c(Cl)c3)ncnc2cc1O[C@H]1CCOC1 [Afatinib (BIBW2992)] | < -6.7 |
| CN1Cc2c(N)cccc2C(c2ccccc2)C1 (stereo not drawn) [Nomifensine maleate] | -1.23 |

| Structure (SMILES) | MBP+ mature oligodendrocyte number |
| --- | --- |
| O=C(Nc1ccccc1)Nc1ccc(-c2ccc(C(=O)[C@@H]3CCC[C@H]3C(=O)O)cc2)cc1 | 7.17 |
| OC[C@@H](O)[C@@H](O)[C@@H](O)CO [Ribitol] | 0.819 |
| O=C1NC(=O)C(=Cc2ccc(-c3ccc(F)cc3)o2)S1 (stereo in doubt) | 0.66 |
| O=C1NC(=O)C(c2ccccc2)(c2ccccc2)N1 [Phenytoin] | 0.339 |
| O=C1NC(=O)C(c2ccccc2)(c2ccccc2)N1 [5,5-Diphenylhydantoin] | 0.398 |
| CC(C)(O)c1ccccc1CC[C@@H](SCC1(CC(=O)O)CC1)c1cccc(/C=C/c2ccc3ccc(Cl)cc3n2)c1 [Montelukast Sodium] | 1.93 |
| NS(=O)(=O)c1ccc(-n2nc(C(F)(F)F)cc2-c2ccc(Cl)cc2)cc1 | 0.931 |
| COc1cccc(C(=O)NCCN2CCN(c3ccc(Cl)cc3)CC2)c1 | -1.45 |
| CC1(C)Cc2c(-c3ccccc3)c(-c3ccc(Cl)cc3)c(CC(=O)O)n2C1 [Licofelone] | -1.79 |
| CC(C)(C)c1cc(NC(=O)Nc2ccc(-c3cn4c(n3)sc3cc(OCCN5CCOCC5)ccc34)cc2)no1 [Quizartinib (AC220)] | 4.57 |
| O=C(/C=C/c1cccc(S(=O)(=O)Nc2ccccc2)c1)NO [Belinostat (PXD101)] | -6.52 |
| Nc1cc2c(ncn2CCOCP(=O)(O)O)c(=O)[nH]1 [PMEG hydrate] | -1.5 |
| Nc1nc2c(cnn2CCc2ccccc2)c2nc(-c3ccco3)nn12 | -1.39 |
| O=c1[nH]ccc2c(O)cccc12 [1,5-Isoquinolinediol] | -0.519 |
| CC(C)(CO)[C@@H](O)C(=O)NCCC(=O)O [D-Pantothenic acid] | 1.4 |
| CCN(CC)C(=O)C1(c2ccccc2)CC1CN (stereo not drawn) [Milnacipran HCl] | 1.22 |
| Cc1cc(C(C)(C)C)cc(C)c1CC1=NCCN1 [Xylometazoline hydrochloride] | -1.93 |
| Cc1cc(C(C)(C)C)cc(C)c1CC1=NCCN1 [Xylometazoline HCl] | -1.9 |
| COc1cc(NC(=O)c2ccccn2)ccc1Cl | 5.1 |
| O=P(O)(O)C(O)(Cn1ccnc1)P(=O)(O)O [Zoledronic acid monohydrate] | -0.637 |
| O=P(O)(O)C(O)(Cn1ccnc1)P(=O)(O)O [Zoledronic Acid] | -0.589 |
| O=C(c1cc(O)c(O)c([N+](=O)[O-])c1)c1ccccc1F | 1.29 |
| CC#CCn1c(N2CCC[C@@H](N)C2)nc2c1c(=O)n(Cc1nc(C)c3ccccc3n1)c(=O)n2C [Linagliptin] | 2.01 |
| CCN(CC)CCOCCOC(=O)C1(c2ccccc2)CCCC1 [Carbetapentane citrate] | 7.93 |
| COc1cc(OC)c(NC(=O)Nc2cc(C)on2)cc1Cl | 2.41 |
| CNC(=O)c1ccc(N2C(=S)N(c3ccc(C#N)c(C(F)(F)F)c3)C(=O)C2(C)C)cc1F [Enzalutamide (MDV3100)] | 16.6 |

| Structure (SMILES) | MBP+ mature oligodendrocyte number |
| --- | --- |
| N[C@H]1CONC1=O [L-Cycloserine] | -1.1 |
| O=c1c(O)c(-c2ccc(O)cc2)oc2cc(O)cc(O)c12 [Kaempferol] | -1.12 |
| COc1cc2nc(N3CCN(C(=O)C4COc5ccccc5O4)CC3)nc(N)c2cc1OC (stereo not drawn) [Doxazosin Mesylate] | -2.68 |
| COc1cc2nc(N3CCN(C(=O)C4COc5ccccc5O4)CC3)nc(N)c2cc1OC (stereo not drawn) [Doxazosin mesylate] | -2.85 |
| N#C/C(=C(/N)Sc1ccc(N)cc1)c1ccccc1C(F)(F)F | -0.589 |
| COc1cccc2c1C(=O)c1c(O)c3c(c(O)c1C2=O)C[C@@](O)(C(=O)CO)C[C@@H]3O[C@H]1C[C@H](N)[C@H](O[C@@H]2CCCCO2)[C@H](C)O1 [Pirarubicin] | < -6.7 |
| COC(=O)C1=CO[C@@H](O)[C@@H]2C(CO)=CC[C@H]12 [Genipin] | 3.27 ± 0.9 |
| Cc1nc(C(=O)NCC(=O)O)c(O)c2ccc(Oc3ccccc3)cc12 | 6.04 |
| CCCOc1ccccc1-c1nc2[nH]nnc2c(=O)[nH]1 [Zaprinast] | < -3.85 |
| CCCCCCNC(=O)n1cc(F)c(=O)[nH]c1=O [Carmofur] | -5.28 ± 2 |
| COc1ccc(Cl)cc1C(=O)NCCc1ccc(S(=O)(=O)NC(=O)NC2CCCCC2)cc1 [Glybenclamide] | -1.22 |
| COc1ccc(Cl)cc1C(=O)NCCc1ccc(S(=O)(=O)NC(=O)NC2CCCCC2)cc1 [Glyburide] | 5.47 |
| Nc1nc(=O)n([C@@H]2CS[C@H](CO)O2)cc1F [Emtricitabine] | -0.467 |
| CC#C[C@]1(O)CC[C@H]2[C@@H]3CCC4=CC(=O)CCC4=C3[C@@H](c3ccc(N(C)C)cc3)C[C@@]21C [Mifepristone] | 0.825 ± 0.37 |
| CCc1cccc(CC)c1NC(=O)N1Cc2[nH]nc(NC(=O)c3ccc(N4CCN(C)CC4)cc3)c2C1 | -6.26 |
| COC(=O)N[C@@H](C)CNc1nccc(-c2cn(C(C)C)nc2-c2cc(Cl)cc(NS(C)(=O)=O)c2F)n1 | -6.01 |
| CC[C@@H]1C(=O)N(C)c2cnc(Nc3ccc(C(=O)N[C@H]4CC[C@H](N5CCN(CC6CC6)CC5)CC4)cc3OC)nc2N1C(C)C [Volasertib (BI 6727)] | < -4.81 |
| CCn1c(=O)c2c(nc(/C=C/c3ccc(OC)c(OC)c3)n2C)n(CC)c1=O [Istradefylline] | -4.18 |
| CC1=NN(c2ccc(C)c(C)c2)C(=O)/C1=N\Nc1cccc(-c2cccc(C(=O)O)c2)c1O [Eltrombopag] | 1.07 |
| NC(C(=O)O)C(O)C(=O)O (racemic) [DL-threo-beta-hydroxyaspartic acid] | 3.48 |
| O=C(O)C1=CC(=C(c2ccc(O)c(C(=O)O)c2)c2ccc(O)c(C(=O)O)c2)C=CC1=O [Aurintricarboxylic acid] | -1.14 |
| C[C@@H]1C/C=C/C=C/C=C/C=C/[C@H](O[C@@H]2O[C@H](C)[C@@H](O)[C@H](N)[C@@H]2O)C[C@@H]2O[C@](O)(C[C@@H](O)C[C@H]3O[C@@H]3/C=C/C(=O)O1)C[C@H](O)[C@H]2C(=O)O [Natamycin] | 0.0731 |
| CC(C(O)c1ccc(O)cc1)N1CCC(Cc2ccccc2)CC1 (stereo not drawn) [Ifenprodil tartrate] | 8.03 |
| CC(C(O)c1ccc(O)cc1)N1CCC(Cc2ccccc2)CC1 (stereo not drawn) [Ifenprodil Tartrate] | 20.3 |
| O=c1ccn([C@@H]2O[C@H](COP(=O)(O)OP(=O)(O)O)[C@@H](O)[C@H]2O)c(=O)[nH]1 [Uridine 5'-diphosphate sodium] | 0.503 |
| CC(C)[C@H](N)C(=O)OCCOCn1cnc2c(=O)nc(N)[nH]c21 [Valaciclovir HCl] | 0.883 |

Reference: the supplement of paper PMC6135742
